Source: the supplement of paper PMC3334620
Over roughly 33,000 sequences, “E-score (-0.5 to 0.5)” has its median near -0.036; the highest 2% begin near 0.37. The list shows a part of the results.

target: T1, Yer064c (UniProt P40041); assay: PBM E-score (8-mer binding enrichment) (E-score (-0.5 to 0.5)); higher = stronger / more preferred TF binding; most listed sequences are background and not binding sites; settings: protein concentration: 200 nM; construct: GST-full length
T1 sequence: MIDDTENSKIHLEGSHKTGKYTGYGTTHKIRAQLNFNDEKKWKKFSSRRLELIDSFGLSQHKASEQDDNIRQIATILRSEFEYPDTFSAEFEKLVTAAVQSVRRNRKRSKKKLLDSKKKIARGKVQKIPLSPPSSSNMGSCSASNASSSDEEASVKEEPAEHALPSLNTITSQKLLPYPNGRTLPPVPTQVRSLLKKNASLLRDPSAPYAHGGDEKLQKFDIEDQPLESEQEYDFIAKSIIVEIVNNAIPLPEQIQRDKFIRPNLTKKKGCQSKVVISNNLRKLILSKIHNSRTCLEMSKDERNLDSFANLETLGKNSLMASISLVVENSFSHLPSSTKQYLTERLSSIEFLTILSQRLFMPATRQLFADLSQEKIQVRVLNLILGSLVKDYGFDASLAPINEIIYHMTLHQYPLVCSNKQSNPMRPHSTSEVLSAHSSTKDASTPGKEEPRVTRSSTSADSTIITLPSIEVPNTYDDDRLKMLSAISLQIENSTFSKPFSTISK
Description: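 Universal 'all 10-mer' protein binding microarrays (Agilent AMADID 015681) probed with GST-tagged S. cerevisiae TFs (full-length or DBD) made by in vitro transcription/translation (PURExpress), about 100-200 nM. Bound TF was detected with fluorescent anti-GST. Each ungapped 8-mer (which stands for itself and its reverse complement) is scored by the PBM enrichment score (E-score), a modified Wilcoxon-Mann-Whitney statistic from -0.5 to +0.5, computed with the Universal PBM Analysis Suite. Scale: above 0.35 generally sequence-specific binding.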

Compared with AGCTACCA, CTATAAAG is lower in “PBM E-score” value: 0.0223 for the first, -0.00177 for the second.

First: GATTTGCC
Second: CCCTTTGA
The “PBM E-score” value of the first is higher: 5e-05 for the first, -0.0843 for the second.

Going from GCAGCCCA to AAACCTAG, the “PBM E-score” value rises from -0.174 to -0.118.

First: GCCGCACA
Second: ATATAACC
The “PBM E-score” value of the first is lower: -0.105 for the first, 0.0125 for the second.

Compared with AAAATATA, AGTTTGGA is higher in “PBM E-score” value: 0.102 for the first, 0.144 for the second.

Going from ATGCAAGG to GCCAGGAC, the “PBM E-score” value rises from -0.283 to -0.0545.

First: TAGGGACA
Second: AAGAAGGG
The “PBM E-score” value of the first is higher: -0.217 for the first, -0.266 for the second.

Going from GGAAGAAA to GAAGCGCA, the “PBM E-score” value falls from -0.0755 to -0.306.

First: GCCTCTAC
Second: ATAAGTTA
The “PBM E-score” value of the first is lower: -0.262 for the first, 0.112 for the second.

First: GGTAATAC
Second: CCAGCAGC
The “PBM E-score” value of the first is higher: -0.129 for the first, -0.19 for the second.

Going from AGGGTCAA to ACCGATAA, the “PBM E-score” value rises from -0.0216 to 0.0165.

Going from GTCGTAAC to AGCCCTTA, the “PBM E-score” value falls from 0.106 to -0.0352.

First: ACTAGCAG
Second: CTGTAGTC
The “PBM E-score” value of the first is lower: 0.2 for the first, 0.416 for the second.

First: AGCTCTAC
Second: GAATTCCC
The “PBM E-score” value of the first is lower: -0.318 for the first, -0.184 for the second.

Compared with ATACTAAG, CCTTGCCA is higher in “PBM E-score” value: 0.0905 for the first, 0.184 for the second.

First: ATGCTGCC
Second: CCGAGAAA
The “PBM E-score” value of the first is higher: -0.0705 for the first, -0.213 for the second.

First: CTCAGTCC
Second: CAACCATA
The “PBM E-score” value of the first is higher: 0.255 for the first, 0.192 for the second.

Going from CGAATCAA to CGCGTGCA, the “PBM E-score” value falls from 0.272 to -0.186.

Compared with CCGTGTAG, GCGTAAGC is lower in “PBM E-score” value: 0.0473 for the first, -0.312 for the second.

Compared with CAGCTATA, ATGCATAG is lower in “PBM E-score” value: 0.0648 for the first, 0.0262 for the second.

Compared with CGCTAAGA, GGGAGATA is lower in “PBM E-score” value: -0.0449 for the first, -0.271 for the second.

First: TCATCGAA
Second: AGTATGAT
The “PBM E-score” value of the first is lower: 0.258 for the first, 0.346 for the second.

Going from AGAGAATC to CGAACACA, the “PBM E-score” value falls from 0.12 to 0.0329.

Compared with CCGATCGC, GTCTAAAA is higher in “PBM E-score” value: -0.0813 for the first, 0.0378 for the second.

Compared with CCGGTGAG, GGCGAGCA is lower in “PBM E-score” value: 0.0747 for the first, -0.157 for the second.

First: CGCGGTTA
Second: ACGTTTTG
The “PBM E-score” value of the first is lower: -0.00025 for the first, 0.0343 for the second.

Compared with GGATTGCA, AAAGGTGA is higher in “PBM E-score” value: 0.00697 for the first, 0.116 for the second.

Going from ATAAACGG to TACATACA, the “PBM E-score” value rises from -0.0207 to 0.154.

Compared with GATGATAC, AGAAAAGG is higher in “PBM E-score” value: 0.00049 for the first, 0.153 for the second.

Going from GCTAATAA to CACCCCTG, the “PBM E-score” value falls from 0.0571 to -0.0345.

First: ACCGTAGG
Second: CAGGCAGG
The “PBM E-score” value of the first is lower: -0.346 for the first, -0.0112 for the second.

Going from GCCCGCGC to AATCGTCA, the “PBM E-score” value rises from -0.164 to 0.216.

First: CGCGTTAA
Second: CGGCGACG
The “PBM E-score” value of the first is higher: -0.0347 for the first, -0.26 for the second.

Compared with CCTATCCG, AATCGTGA is higher in “PBM E-score” value: -0.366 for the first, 0.2 for the second.

CCTGTACG and AGTGTCGG are the same in “PBM E-score” value: -0.148 for the first, -0.148 for the second.

Compared with CACGTCGG, CAATCGGA is higher in “PBM E-score” value: -0.247 for the first, -0.0345 for the second.

Compared with GACGTATA, ACGTCAGT is higher in “PBM E-score” value: -0.113 for the first, 0.0998 for the second.

Compared with CACGCCAA, ATAAAAGC is higher in “PBM E-score” value: -0.0753 for the first, 0.00456 for the second.

Compared with GATGAGGC, TTACCAAA is higher in “PBM E-score” value: -0.218 for the first, 0.0267 for the second.

Going from AGTGGTTC to TATTCGAA, the “PBM E-score” value falls from 0.00487 to -0.0197.

Compared with CACCGGTA, CAGCTGTA is lower in “PBM E-score” value: 0.0582 for the first, 0.00614 for the second.

First: CAGAAAAC
Second: ACGGCTCG
The “PBM E-score” value of the first is higher: 0.0822 for the first, -0.117 for the second.

First: GTCAACAC
Second: TGACGGCA
The “PBM E-score” value of the first is higher: 0.245 for the first, -0.189 for the second.

First: CAACAGAC
Second: AATGTACT
The “PBM E-score” value of the first is higher: 0.00774 for the first, 0.00383 for the second.

Compared with CTAGTCCC, CCATCGTC is higher in “PBM E-score” value: -0.135 for the first, -0.0755 for the second.

Compared with CACTGGTA, ATCACTAG is higher in “PBM E-score” value: 0.011 for the first, 0.146 for the second.

First: AATAGAAT
Second: GGTACACC
The “PBM E-score” value of the first is higher: 0.123 for the first, -0.185 for the second.

Going from GAGTCCAA to GTACGCAC, the “PBM E-score” value falls from 0.332 to -0.214.

Going from ACCGGTCA to ATCGCCCG, the “PBM E-score” value rises from -0.201 to -0.132.

Compared with CCAGAACG, AGCAGGCT is lower in “PBM E-score” value: 0.0346 for the first, -0.254 for the second.

Going from ACTTCTCT to CTGACTTA, the “PBM E-score” value rises from 0.104 to 0.407.

First: AATTGCCC
Second: GAGACGGA
The “PBM E-score” value of the first is lower: -0.234 for the first, -0.12 for the second.

Compared with TACCGTGA, CTTACATC is lower in “PBM E-score” value: 0.0974 for the first, -0.0485 for the second.

Going from ATGGTGCA to CTTGAGTC, the “PBM E-score” value rises from -0.134 to 0.466.

First: ATAGAGCG
Second: ACTGTCAA
The “PBM E-score” value of the first is higher: -0.0139 for the first, -0.0537 for the second.

First: CACCATGA
Second: ATCACATA
The “PBM E-score” value of the first is lower: 0.126 for the first, 0.252 for the second.

Compared with CAGATCTA, GACGGTAC is lower in “PBM E-score” value: 0.0635 for the first, -0.135 for the second.

Going from GGATTCCA to CACGGGTC, the “PBM E-score” value falls from 0.0871 to -0.0881.

First: CGCCCCTC
Second: GATGAGCC
The “PBM E-score” value of the first is lower: -0.256 for the first, 0.146 for the second.

First: GGCTTCCA
Second: ATGATAAC
The “PBM E-score” value of the first is lower: -0.249 for the first, 0.0491 for the second.

First: AGGTATGA
Second: ATGCAACG
The “PBM E-score” value of the first is higher: 0.188 for the first, -0.207 for the second.

Going from ACAACGTC to CGCGAACA, the “PBM E-score” value falls from -0.0674 to -0.0954.

First: ATGACCGC
Second: CTTTCCGA
The “PBM E-score” value of the first is lower: -0.075 for the first, 0.081 for the second.

Going from ACTGATCA to AATTGCTC, the “PBM E-score” value falls from 0.206 to -0.275.

Compared with GCCCGAAA, ATAGATTA is higher in “PBM E-score” value: -0.127 for the first, 0.112 for the second.

Going from CCGCTTTA to AGACGCTG, the “PBM E-score” value falls from -0.0889 to -0.115.

Going from GGGTGTTA to CATCGCAG, the “PBM E-score” value falls from 0.122 to 0.0109.

Going from GCCGTCCA to CCCTAGCG, the “PBM E-score” value rises from -0.258 to -0.0323.

Compared with GACGGAGC, ACAATCAA is higher in “PBM E-score” value: -0.307 for the first, 0.202 for the second.

First: AAATGATG
Second: AACGACAA
The “PBM E-score” value of the first is higher: 0.0155 for the first, -0.0716 for the second.

Compared with AGATTATC, ATCGGTGA is higher in “PBM E-score” value: 0.0904 for the first, 0.175 for the second.

Compared with CACATTCG, AGTCCACG is lower in “PBM E-score” value: 0.0697 for the first, 0.0376 for the second.

Going from ATTACCGA to CTCCCTAA, the “PBM E-score” value falls from 0.162 to -0.13.

First: AGCGAAGG
Second: CCGTTATC
The “PBM E-score” value of the first is lower: -0.178 for the first, 0.0125 for the second.

Going from AATGCTCA to TACCAGAA, the “PBM E-score” value rises from 0.0674 to 0.0829.

First: AGAAATGA
Second: ATGACCCC
The “PBM E-score” value of the first is higher: 0.185 for the first, 0.0957 for the second.

First: ACCGACTC
Second: CGTTCGAC
The “PBM E-score” value of the first is higher: 0.328 for the first, -0.0317 for the second.

Compared with AAGTAGAG, GGGCTGAC is higher in “PBM E-score” value: 0.00221 for the first, 0.249 for the second.

Going from CTATTACC to ACGGGTAC, the “PBM E-score” value falls from -0.0237 to -0.0908.

First: CCAGTGGC
Second: TAAAATGA
The “PBM E-score” value of the first is lower: -0.0264 for the first, 0.267 for the second.

Compared with AAGGTCGG, ACACATCT is higher in “PBM E-score” value: -0.253 for the first, 0.131 for the second.

Compared with CCCACTAA, AGCTTCTA is lower in “PBM E-score” value: 0.0943 for the first, -0.146 for the second.

Going from AATAAGTG to CCCAGCTC, the “PBM E-score” value falls from 0.0448 to -0.201.

Going from GAATCCTC to CAGAGTCC, the “PBM E-score” value rises from -0.0146 to 0.212.

Going from CGTGGCAC to CTTTAGGC, the “PBM E-score” value rises from -0.137 to -0.131.

First: ACGTACAA
Second: CCCTAGCC
The “PBM E-score” value of the first is higher: 0.0838 for the first, -0.384 for the second.
